Assays:
[1] = test system: non-typeable Haemophilus influenzae (NTHi) induced inflammation in THP-1 cells; test: NTHi-induced TNF-α in PMA-differentiated THP-1 cells; settings: PMA-differentiated THP-1, 2.5 uM IDX 1 hour, NTHi 100 CFU/cell
[2] = test system: HOS cells (STING); test: CPT-induced IL-6 in HOS cells; format: cell-based, human; settings: 0.2 μM CPT 48 hours, H151 1.8 μM, IDX 1.25 μM
[3] = test system: PC-3 cells (STING); test: CPT-induced IL-6 in PC-3 cells; format: cell-based, human; settings: PC-3, 0.5 μM CPT 20 hours; H151 1.8 μM, IDX 1.25 μM
[4] = test system: MG-63 cells (cGAS-STING); test: ISD transfection (cGAS-STING activation) in MG-63 cells; settings: MG-63 pre-treated for 48 hours with IDX (1.25 μM), ISD 2.5 μg/mL
[5] = test system: MG63 cells (STING); test: CPT-induced IL-6 in MG63 cells; settings: MG63, 0.1 μM CPT 48 hours; IDX 7.5, 5, 2.5 and 1.25 μM
[6] = target: T1, mouse STING (Mus musculus, UniProt Q3TBT3); test: DMXAA-induced ISRE-luciferase in L929 cells; settings: 2.5 uM IDX; DMXAA up to 100 ug/ml
T1 sequence (Q3TBT3 1-378): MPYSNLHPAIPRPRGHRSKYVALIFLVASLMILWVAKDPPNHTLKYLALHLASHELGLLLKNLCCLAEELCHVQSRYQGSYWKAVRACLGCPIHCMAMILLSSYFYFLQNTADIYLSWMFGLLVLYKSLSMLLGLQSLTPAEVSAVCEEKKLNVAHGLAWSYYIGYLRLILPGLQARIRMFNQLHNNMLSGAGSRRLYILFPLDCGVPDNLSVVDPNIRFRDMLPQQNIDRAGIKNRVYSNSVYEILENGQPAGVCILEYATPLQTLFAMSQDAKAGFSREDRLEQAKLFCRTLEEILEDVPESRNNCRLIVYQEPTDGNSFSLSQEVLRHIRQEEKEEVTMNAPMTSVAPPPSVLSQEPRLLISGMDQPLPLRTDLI
Procedure: FIG. 2: Mouse L929 cells stably expressing an IFN-stimulated responsive element (ISRE)-luciferase reporter were pre-treated for 1 h with indicated doses of IDX, prior an 8 h stimulation with 20 ug/ml DMXAA. Cells were lysed and firefly luciferase was quantified at the end of the experiment. Data shown are averaged from 2 independent experiments in biological triplicate, relative to DMXAA and DMSO only condition control (±SEM).
FIG. 3: Similar to FIG. 2, the L929 cells were pre-treated with 2.5 uM of IDX, prior to stimulation with increasing concentrations of DMXAA for 8 h. Luciferase assays were carried out at 8 hours.
Cell culture and reagents.
To determine whether IDX could inhibit STING signalling more directly, mouse L929 cells stably expressing an IFN-stimulated-responsive luciferase (ISRE-Luc) were pretreated with IDX at various doses for 1 h, prior to DMXAA stimulation for 8 h (FIG. 2). DMXAA is an activator of mouse STING (11).
The inhibitory effect of IDX on IL-6 is not surprising as it is well known that the molecule IDX is closely related in structure to genistein, which inhibits NF-κB signalling. The IDX induced reduction in IL-6 production may therefore be the result from an inhibition of the NF-κB signalling branch downstream of STING. […]

Oc1ccc(C2=Cc3ccc(O)cc3OC2)cc1 [IDX, 2H-1-Benzopyran-7-0,1,3-(4-hydroxyphenyl)]
NTHi induced inflammation (TNF-α ELISA) [1]: potent anti-inflammatory effect
CPT-induced IL-6 levels [2]: strongly reduced
CPT-induced IL-6 levels [3]: significantly reduced
IL-6 production upon transfection of ISD [4]: decreased
CPT-induced IL-6 levels [5]: strongly reduced
effect of increasing DMXAA on inhibition of ISRE-Luc [6]: did not change the efficacy of the inhibition

CCc1ccc(NC(=O)Nc2c[nH]c3ccccc23)cc1 [H151, reference compound]
CPT-induced IL-6 levels [2]: inhibition
CPT-induced IL-6 levels [3]: dampened

CC(=O)Oc1ccccc1C(=O)O [aspirin]
CPT-induced IL-6 levels [3]: not inhibited

— patent US11541030B2, “Methods for the treatment of inflammation associated with infection” (NOXOPHARM LIMITED, priority 2020, dated 2023)
